Measurements as given in the supplement of paper PMC8728848.
The other results are listed elsewhere or left out.

What was measured:
Experiment in all cases: glycan array binding signal (z-score within array); higher = stronger binding
Conditions in all cases: glycan notation: IUPAC condensed, linker removed
[1] = target: Gal(b1-4)GlcNAc(b1-3)Gal(b1-4)Glc
Method in brief: (§1)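 Negative Z-scores can be read as non-binding. The Z-score is calculated within each array and then averaged across arrays of one protein sequence at different concentrations or buffers and across linkers. Arrays, 3228 in all, were curated from the Consortium for Functional Glycomics database and kept only where the protein sequence was available.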

[2] = target: Gal(b1-4)GlcNAc(b1-3)Gal(b1-4)GlcNAc
Method in brief: as §1

[3] = target: Gal(b1-4)GlcNAc(b1-3)Gal(b1-4)GlcNAc(b1-2)Man(a1-3)[Gal(b1-4)GlcNAc(b1-3)Gal(b1-4)GlcNAc(b1-2)Man(a1-6)]Man(b1-4)GlcNAc(b1-4)GlcNAc
Method in brief: as §1

[4] = target: Gal(b1-4)GlcNAc(b1-3)Gal(b1-4)GlcNAc(b1-2)Man(a1-3)[Gal(b1-4)GlcNAc(b1-3)Gal(b1-4)GlcNAc(b1-2)Man(a1-6)]Man(b1-4)GlcNAc(b1-4)[Fuc(a1-6)]GlcNAc
Method in brief: as §1

[5] = target: Gal(b1-4)GlcNAc(b1-3)Gal(b1-4)GlcNAc(b1-2)[Gal(b1-4)GlcNAc(b1-3)Gal(b1-4)GlcNAc(b1-6)]Man(a1-6)[Gal(b1-4)GlcNAc(b1-3)Gal(b1-4)GlcNAc(b1-2)Man(a1-3)]Man(b1-4)GlcNAc(b1-4)GlcNAc
Method in brief: as §1

[6] = target: Gal(b1-4)GlcNAc(b1-3)Gal(b1-4)GlcNAc(b1-2)[Gal(b1-4)GlcNAc(b1-3)Gal(b1-4)GlcNAc(b1-6)]Man(a1-6)[Gal(b1-4)GlcNAc(b1-3)Gal(b1-4)GlcNAc(b1-2)Man(a1-3)]Man(b1-4)GlcNAc(b1-4)[Fuc(a1-6)]GlcNAc
Method in brief: as §1

[7] = target: Gal(b1-4)GlcNAc(b1-3)Gal(b1-4)GlcNAc(b1-3)Gal(b1-4)GlcNAc
Method in brief: as §1

[8] = target: Gal(b1-4)GlcNAc(b1-3)Gal(b1-4)GlcNAc(b1-3)Gal(b1-4)GlcNAc(b1-2)Man(a1-3)[Gal(b1-4)GlcNAc(b1-3)Gal(b1-4)GlcNAc(b1-3)Gal(b1-4)GlcNAc(b1-2)Man(a1-6)]Man(b1-4)GlcNAc(b1-4)GlcNAc
Method in brief: as §1

[9] = target: Gal(b1-4)GlcNAc(b1-3)Gal(b1-4)GlcNAc(b1-3)Gal(b1-4)GlcNAc(b1-2)Man(a1-3)[Gal(b1-4)GlcNAc(b1-3)Gal(b1-4)GlcNAc(b1-3)Gal(b1-4)GlcNAc(b1-2)Man(a1-6)]Man(b1-4)GlcNAc(b1-4)[Fuc(a1-6)]GlcNAc
Method in brief: as §1

[10] = target: Gal(b1-4)GlcNAc(b1-3)Gal(b1-4)GlcNAc(b1-3)Gal(b1-4)GlcNAc(b1-2)[Gal(b1-4)GlcNAc(b1-3)Gal(b1-4)GlcNAc(b1-3)Gal(b1-4)GlcNAc(b1-6)]Man(a1-6)[Gal(b1-4)GlcNAc(b1-3)Gal(b1-4)GlcNAc(b1-3)Gal(b1-4)GlcNAc(b1-2)Man(a1-3)]Man(b1-4)GlcNAc(b1-4)[Fuc(a1-6)]GlcNAc
Method in brief: as §1

[11] = target: Gal(b1-4)GlcNAc(b1-3)Gal(b1-4)GlcNAc(b1-3)Gal(b1-4)GlcNAc(b1-3)Gal(b1-4)GlcNAc(b1-2)Man(a1-3)[Gal(b1-4)GlcNAc(b1-3)Gal(b1-4)GlcNAc(b1-3)Gal(b1-4)GlcNAc(b1-3)Gal(b1-4)GlcNAc(b1-2)Man(a1-6)]Man(b1-4)GlcNAc(b1-4)GlcNAc
Method in brief: as §1

[12] = target: Gal(b1-4)GlcNAc(b1-3)Gal(b1-4)GlcNAc(b1-3)Gal(b1-4)GlcNAc(b1-3)Gal(b1-4)GlcNAc(b1-2)Man(a1-3)[Gal(b1-4)GlcNAc(b1-3)Gal(b1-4)GlcNAc(b1-3)Gal(b1-4)GlcNAc(b1-3)Gal(b1-4)GlcNAc(b1-2)Man(a1-6)]Man(b1-4)GlcNAc(b1-4)[Fuc(a1-6)]GlcNAc
Method in brief: as §1

[13] = target: Gal(b1-4)GlcNAc(b1-3)Gal(b1-4)GlcNAc(b1-3)Gal(b1-4)GlcNAc(b1-3)Gal(b1-4)GlcNAc(b1-2)[Gal(b1-4)GlcNAc(b1-3)Gal(b1-4)GlcNAc(b1-3)Gal(b1-4)GlcNAc(b1-3)Gal(b1-4)GlcNAc(b1-6)]Man(a1-6)[Gal(b1-4)GlcNAc(b1-3)Gal(b1-4)GlcNAc(b1-3)Gal(b1-4)GlcNAc(b1-3)Gal(b1-4)GlcNAc(b1-2)Man(a1-3)]Man(b1-4)GlcNAc(b1-4)[Fuc(a1-6)]GlcNAc
Method in brief: as §1

[14] = target: Gal(b1-4)GlcNAc(b1-3)Gal(b1-4)GlcNAc(b1-3)Gal(b1-4)GlcNAc(b1-3)Gal(b1-4)GlcNAc(b1-3)Gal(b1-4)GlcNAc(b1-2)Man(a1-3)[Gal(b1-4)GlcNAc(b1-3)Gal(b1-4)GlcNAc(b1-3)Gal(b1-4)GlcNAc(b1-3)Gal(b1-4)GlcNAc(b1-3)Gal(b1-4)GlcNAc(b1-2)Man(a1-6)]Man(b1-4)GlcNAc(b1-4)GlcNAc
Method in brief: as §1

[15] = target: Gal(b1-4)GlcNAc(b1-3)Gal(b1-4)GlcNAc(b1-3)Gal(b1-4)GlcNAc(b1-3)Gal(b1-4)GlcNAc(b1-3)Gal(b1-4)GlcNAc(b1-2)Man(a1-3)[Gal(b1-4)GlcNAc(b1-3)Gal(b1-4)GlcNAc(b1-3)Gal(b1-4)GlcNAc(b1-3)Gal(b1-4)GlcNAc(b1-3)Gal(b1-4)GlcNAc(b1-2)Man(a1-6)]Man(b1-4)GlcNAc(b1-4)[Fuc(a1-6)]GlcNAc
Method in brief: as §1

[16] = target: Gal(b1-4)GlcNAc(b1-3)Gal(b1-4)GlcNAc(b1-3)Gal(b1-4)GlcNAc(b1-3)Gal(b1-4)GlcNAc(b1-3)Gal(b1-4)GlcNAc(b1-2)[Gal(b1-4)GlcNAc(b1-3)Gal(b1-4)GlcNAc(b1-3)Gal(b1-4)GlcNAc(b1-3)Gal(b1-4)GlcNAc(b1-3)Gal(b1-4)GlcNAc(b1-6)]Man(a1-6)[Gal(b1-4)GlcNAc(b1-3)Gal(b1-4)GlcNAc(b1-3)Gal(b1-4)GlcNAc(b1-3)Gal(b1-4)GlcNAc(b1-3)Gal(b1-4)GlcNAc(b1-2)Man(a1-3)]Man(b1-4)GlcNAc(b1-4)[Fuc(a1-6)]GlcNAc
Method in brief: as §1

[17] = target: Gal(b1-4)GlcNAc(b1-3)Gal(b1-4)GlcNAc(b1-3)Gal(b1-4)GlcNAc(b1-3)Gal(b1-4)GlcNAc(b1-3)Gal(b1-4)GlcNAc(b1-3)Gal(b1-4)GlcNAc(b1-2)Man(a1-3)[Gal(b1-4)GlcNAc(b1-3)Gal(b1-4)GlcNAc(b1-3)Gal(b1-4)GlcNAc(b1-3)Gal(b1-4)GlcNAc(b1-3)Gal(b1-4)GlcNAc(b1-3)Gal(b1-4)GlcNAc(b1-2)Man(a1-6)]Man(b1-4)GlcNAc(b1-4)GlcNAc
Method in brief: as §1

[18] = target: Gal(b1-4)GlcNAc(b1-3)Gal(b1-4)GlcNAc(b1-3)GalNAc
Method in brief: as §1

[19] = target: Gal(b1-4)GlcNAc(b1-3)Gal(b1-4)GlcNAc(b1-3)[Gal(b1-4)GlcNAc(b1-3)Gal(b1-4)GlcNAc(b1-6)]GalNAc
Method in brief: as §1

B1: B1257 (Bifidobacterium sp) (protein)
chain: MKKSIRLVAAIAALAMTAGISACGSSTNGNQAKSDVTAQDVETALTDTSKNVELTVWAYSAKQMEPTVKAFEKKYPHIKINFVNTGAAGDHFTKFQNVVQAQKDIPDVVQMGANKFQQFAVSGALLNFANDSIEKAWSKLYTKTAWAQVHYAGGLYGAPQDATPLANYVRKDILDEHNLQVPESWEDIYNEGIKLHKEDSNKYMGILGSDISFFTNLYRSVGARLWKVNSVDDVELTMNSGKAKEFTEFLQKCLKDGVLEGGTVFTDEFNRSINDGRYATFINENWMGNTYKEQNPSLKGKMVVAAPPSWKGQPYQSSSVGSMMSVSAACPKEKQAAALAFINWLDSDKDAIQSWQDTNNGNFFMAASVYQDDENQRNKKETDGYYANDDVNAVYFDSMDKVNTDWEYLPFMSQVEVVFNDVIVPQMNENGDLVGAMAKAQQELKTYAKDNGFKVTTDAD
- glycan array binding signal (z-score) [1]: 0.301
- glycan array binding signal (z-score) [2]: -0.162
- glycan array binding signal (z-score) [3]: 0.212
- glycan array binding signal (z-score) [4]: 0.122
- glycan array binding signal (z-score) [5]: 0.24
- glycan array binding signal (z-score) [6]: 0.04
- glycan array binding signal (z-score) [7]: -0.169
- glycan array binding signal (z-score) [8]: 0.108
- glycan array binding signal (z-score) [9]: -0.027
- glycan array binding signal (z-score) [10]: 0.044
- glycan array binding signal (z-score) [11]: 0.03
- glycan array binding signal (z-score) [12]: 0.042
- glycan array binding signal (z-score) [13]: 0.009
- glycan array binding signal (z-score) [14]: -0.019
- glycan array binding signal (z-score) [15]: -0.012
- glycan array binding signal (z-score) [16]: 0.107
- glycan array binding signal (z-score) [17]: -0.052
- glycan array binding signal (z-score) [18]: 0.005
- glycan array binding signal (z-score) [19]: 0.042
